# Data from the supplement of paper PMC8728848.
# This is one part of the list.
# B1: FimA-N1 (Actinomyces oris) (protein)
# chain: MHHHHHHSSGVDLGTENLYFQSNATETPNYGNIKTDATGSLVIHKHLTGGGKDIGTPTGTAQNADDKGPAVEGVVFTAYPITDINLKDPAGWDTISNLSRTGVPDSACANPAAPTLGAHQFGTPKVSPATTKEGLATITEMPVQAYLVCETTTPGDIVQKAKPFVVTIPHPNTAAGADGQWIYDVNVYPKNEAIDVDKTIQAQK
# Legend:
# Assay in all cases: glycan array binding signal (z-score within array); higher = stronger binding
# Details in all cases: glycan notation: IUPAC condensed, linker removed
# [1] = target: Man(a1-2)Man(a1-3)[Man(a1-2)Man(a1-6)]Man(a1-6)[Man(a1-2)Man(a1-2)Man(a1-3)]Man
# Procedure, shortened: (§1)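 Arrays were curated from the Consortium for Functional Glycomics database, 3228 in total, and kept only where the protein sequence was available. Binding is expressed as a within-array Z-score. This score was averaged across arrays of the same protein sequence at different concentrations or buffers and across linkers, and negative values can be read as non-binding.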
# [2] = target: Man(a1-2)Man(a1-3)[Man(a1-2)Man(a1-6)]Man(a1-6)[Man(a1-2)Man(a1-2)Man(a1-3)]Man(b1-4)GlcNAc(b1-4)GlcNAc
# Procedure, shortened: as §1
# [3] = target: Man(a1-2)Man(a1-3)[Man(a1-6)]Man(a1-6)[Man(a1-2)Man(a1-3)]Man(b1-4)GlcNAc(b1-4)GlcNAc
# Procedure, shortened: as §1
# [4] = target: Man(a1-2)Man(a1-6)[Man(a1-3)]Man(a1-6)[Man(a1-2)Man(a1-2)Man(a1-3)]Man
# Procedure, shortened: as §1
# [5] = target: Man(a1-2)Man(a1-6)[Man(a1-3)]Man(a1-6)[Man(a1-2)Man(a1-2)Man(a1-3)]Man(b1-4)GlcNAc(b1-4)GlcNAc
# Procedure, shortened: as §1
# Man(a1-3)[Man(a1-6)]Man = target: Man(a1-3)[Man(a1-6)]Man
# Procedure, shortened: as §1
# [6] = target: Man(a1-3)[Man(a1-6)]Man(a1-6)[Man(a1-2)Man(a1-3)]Man(b1-4)GlcNAc(b1-4)GlcNAc
# Procedure, shortened: as §1
# [7] = target: Man(a1-3)[Man(a1-6)]Man(a1-6)[Man(a1-3)]Man
# Procedure, shortened: as §1
# [8] = target: Man(a1-3)[Man(a1-6)]Man(a1-6)[Man(a1-3)]Man(b1-4)GlcNAc(b1-4)GlcNAc
# Procedure, shortened: as §1
# [9] = target: Man(a1-3)[Man(a1-6)]Man(b1-4)GlcNAc(b1-4)GlcNAc
# Procedure, shortened: as §1
# [10] = target: Man(a1-3)[Man(a1-6)]Man(b1-4)GlcNAc(b1-4)[Fuc(a1-6)]GlcNAc
# Procedure, shortened: as §1
# Man(a1-6)Man = target: Man(a1-6)Man
# Procedure, shortened: as §1
# Man(b1-4)GlcNAc = target: Man(b1-4)GlcNAc
# Procedure, shortened: as §1
# MurNAc(b1-4)GlcNAc = target: MurNAc(b1-4)GlcNAc
# Procedure, shortened: as §1
# Neu5Ac(a2-3)Gal = target: Neu5Ac(a2-3)Gal
# Procedure, shortened: as §1
# [11] = target: Neu5Ac(a2-3)Gal(b1-3)GalNAc
# Procedure, shortened: as §1
# [12] = target: Neu5Ac(a2-3)Gal(b1-3)GalNAc(b1-3)Gal(a1-4)Gal(b1-4)Glc
# Procedure, shortened: as §1
# [13] = target: Neu5Ac(a2-3)Gal(b1-3)GalNAc(b1-4)[Neu5Ac(a2-3)]Gal(b1-4)Glc
# Procedure, shortened: as §1
# [14] = target: Neu5Ac(a2-3)Gal(b1-3)GalNAc(b1-4)[Neu5Ac(a2-8)Neu5Ac(a2-3)]Gal(b1-4)Glc
# Procedure, shortened: as §1
# [15] = target: Neu5Ac(a2-3)Gal(b1-3)GalNAc6S
# Procedure, shortened: as §1
# [16] = target: Neu5Ac(a2-3)Gal(b1-3)GlcNAc
# Procedure, shortened: as §1
# [17] = target: Neu5Ac(a2-3)Gal(b1-3)GlcNAc(b1-2)Man
# Procedure, shortened: as §1
# [18] = target: Neu5Ac(a2-3)Gal(b1-3)GlcNAc(b1-2)Man(a1-3)[GlcNAc(b1-4)][Neu5Ac(a2-3)Gal(b1-3)GlcNAc(b1-2)Man(a1-6)]Man(b1-4)GlcNAc(b1-4)GlcNAc
# Procedure, shortened: as §1
# [19] = target: Neu5Ac(a2-3)Gal(b1-3)GlcNAc(b1-2)Man(a1-3)[Neu5Ac(a2-3)Gal(b1-3)GlcNAc(b1-2)Man(a1-6)]Man(b1-4)GlcNAc(b1-4)GlcNAc
# Procedure, shortened: as §1
# [20] = target: Neu5Ac(a2-3)Gal(b1-3)GlcNAc(b1-3)Gal(b1-3)GlcNAc
# Procedure, shortened: as §1
# [21] = target: Neu5Ac(a2-3)Gal(b1-3)GlcNAc(b1-3)Gal(b1-4)GlcNAc
# Procedure, shortened: as §1
# [22] = target: Neu5Ac(a2-3)Gal(b1-3)GlcNAc(b1-3)GalNAc
# Procedure, shortened: as §1
# [23] = target: Neu5Ac(a2-3)Gal(b1-3)GlcNAc(b1-4)Gal(b1-4)Glc
# Procedure, shortened: as §1
# [24] = target: Neu5Ac(a2-3)Gal(b1-3)GlcNAc(b1-6)GalNAc
# Procedure, shortened: as §1
# [25] = target: Neu5Ac(a2-3)Gal(b1-3)GlcNAc6S
# Procedure, shortened: as §1
# [26] = target: Neu5Ac(a2-3)Gal(b1-3)[Fuc(a1-4)]GlcNAc
# Procedure, shortened: as §1
# [27] = target: Neu5Ac(a2-3)Gal(b1-3)[Fuc(a1-4)]GlcNAc(b1-3)Gal(b1-3)[Fuc(a1-4)]GlcNAc
# Procedure, shortened: as §1
# [28] = target: Neu5Ac(a2-3)Gal(b1-3)[Fuc(a1-4)]GlcNAc(b1-3)Gal(b1-4)[Fuc(a1-3)]GlcNAc
# Procedure, shortened: as §1
# [29] = target: Neu5Ac(a2-3)Gal(b1-3)[GlcNAc(b1-6)]GalNAc
# Procedure, shortened: as §1
# [30] = target: Neu5Ac(a2-3)Gal(b1-3)[Neu5Ac(a2-6)]GalNAc
# Procedure, shortened: as §1
# [31] = target: Neu5Ac(a2-3)Gal(b1-3)[Neu5Ac(a2-6)]GlcNAc(b1-3)[Fuc(a1-3)[Gal(b1-4)]GlcNAc(b1-6)]Gal(b1-4)Glc
# Procedure, shortened: as §1
# [32] = target: Neu5Ac(a2-3)Gal(b1-3)]Neu5Ac(a2-3)Gal(b1-4)]GlcNAc
# Procedure, shortened: as §1
# Neu5Ac(a2-3)Gal(b1-4)Glc = target: Neu5Ac(a2-3)Gal(b1-4)Glc
# Procedure, shortened: as §1
binder,measurement,setting,value
B1,glycan array binding signal (z-score),[1],-0.401
same,glycan array binding signal (z-score),[2],-0.316
same,glycan array binding signal (z-score),[3],-0.456
same,glycan array binding signal (z-score),[4],-0.351
same,glycan array binding signal (z-score),[5],-0.019
same,glycan array binding signal (z-score),Man(a1-3)[Man(a1-6)]Man,-0.359
same,glycan array binding signal (z-score),[6],0.024
same,glycan array binding signal (z-score),[7],0.2
same,glycan array binding signal (z-score),[8],-0.229
same,glycan array binding signal (z-score),[9],-0.122
same,glycan array binding signal (z-score),[10],-0.598
same,glycan array binding signal (z-score),Man(a1-6)Man,0.12
same,glycan array binding signal (z-score),Man(b1-4)GlcNAc,-0.154
same,glycan array binding signal (z-score),MurNAc(b1-4)GlcNAc,-0.089
same,glycan array binding signal (z-score),Neu5Ac(a2-3)Gal,-0.306
same,glycan array binding signal (z-score),[11],0.262
same,glycan array binding signal (z-score),[12],-0.235
same,glycan array binding signal (z-score),[13],0.282
same,glycan array binding signal (z-score),[14],-0.565
same,glycan array binding signal (z-score),[15],-0.296
same,glycan array binding signal (z-score),[16],0.086
same,glycan array binding signal (z-score),[17],-0.051
same,glycan array binding signal (z-score),[18],-0.41
same,glycan array binding signal (z-score),[19],0.232
same,glycan array binding signal (z-score),[20],-0.344
same,glycan array binding signal (z-score),[21],-0.463
same,glycan array binding signal (z-score),[22],-0.22
same,glycan array binding signal (z-score),[23],-0.472
same,glycan array binding signal (z-score),[24],0.079
same,glycan array binding signal (z-score),[25],-0.179
same,glycan array binding signal (z-score),[26],-0.213
same,glycan array binding signal (z-score),[27],-0.037
same,glycan array binding signal (z-score),[28],0.11
same,glycan array binding signal (z-score),[29],0.125
same,glycan array binding signal (z-score),[30],-0.045
same,glycan array binding signal (z-score),[31],-0.155
same,glycan array binding signal (z-score),[32],0.05
same,glycan array binding signal (z-score),Neu5Ac(a2-3)Gal(b1-4)Glc,-0.037
